From paper PMC3812274 (Biochemistry, 2013)

Tests used:
[1] = target: N-terminal SNARE motif of human SNAP-25B (residues 11-82) (human, UniProt P60880-1 11-82); assay: assembly of an SDS-resistant complex
[2] = target: C-terminal SNARE motif of human SNAP-25B (residues 141-203) (human, UniProt P60880-1 part only); assay: assembly of an SDS-resistant complex

B1: SNARE motif of rat syntaxin-1A ([…]) (domain or fragment)
chain: not shown
binding result [1]: binds
binding result [2]: binds
